Experimental data as given in publication PMC8651296, “Conformational dynamics of auto-inhibition in the ER calcium sensor STIM1” (eLife, 2021).

B1: ctSTIM1 L248S + L251S (C437S background) (domain or fragment)
chain: not shown
notes: STIM1, human, cytosolic domain (ctSTIM1), […]; SENLYFQ stays at the C terminus after TEV cleavage; also called 2LS; 2LS-d4; not shown: His6, C-terminal, cleaved
B2: ctSTIM1 cysteine mutant at position 309 (N309; C437S background) (domain or fragment)
chain: not shown
modifications: Alexa Fluor 555 or Alexa Fluor 647 on the introduced cysteine
notes: STIM1, human, cytosolic domain (ctSTIM1), […]; SENLYFQ stays at the C terminus after TEV cleavage; not shown: His6, C-terminal, cleaved
B3: ctSTIM1 S339C (C437S background) (domain or fragment)
chain: not shown
notes: as for B2
B4: ctSTIM1 R304W (Stormorken mutation; C437S background) (domain or fragment)
chain: not shown
notes: STIM1, human, cytosolic domain (ctSTIM1), […]; SENLYFQ stays at the C terminus after TEV cleavage; R304W occurs in nature; C437S was made; also called R304W-d4; not shown: His6, C-terminal, cleaved
B5: ctSTIM1 (full cytosolic domain of STIM1, […]), cysteine-free (C437S) (domain or fragment)
chain: not shown
notes: STIM1, human, cytosolic domain (ctSTIM1), […]; SENLYFQ stays at the C terminus after TEV cleavage; The ctSTIM1 insert carries C437S; also called wild-type ctSTIM1; WT; not shown: His6, C-terminal, cleaved
B6: ctSTIM1 T307C (C437S background) (domain or fragment)
chain: not shown
modifications: Alexa Fluor 555 or Alexa Fluor 647 on the introduced cysteine in smFRET; disulfide-linked at C307 by CuP before the BS3 treatment
notes: STIM1, human, cytosolic domain (ctSTIM1), […]; SENLYFQ stays at the C terminus after TEV cleavage; also called T307C-d4; not shown: His6, C-terminal, cleaved

Legend:
[1] = molecular target: the molecule itself; experiment: cross-linking; lysine-lysine cross-linking with BS3 (0, 20, 50 μM; d0 or d4), ctSTIM1 10 μM, 150 mM NaCl, 20 mM HEPES pH 8.0, 30 min, room temperature; SDS-PAGE, monomer and dimer bands read by mass spectrometry
[2] = molecular target: the molecule itself; experiment: FRET or BRET; single-molecule FRET (TIRF), symmetric inter-subunit: one cysteine mutant labelled with Alexa Fluor 555 and 647 mixed 1:1; single ctSTIM1 dimers in liposomes tethered by biotin-neutravidin; 20/150 TBS pH 7.4, room temperature
[3] = molecular target: the molecule itself; experiment: cross-linking; cysteine cross-linking of ctSTIM1 dimers (5 μM) with 300 μM CuSO4 and 900 μM o-phenanthroline, 15 min, room temperature; non-reducing SDS-PAGE, Coomassie

Protein	binding result [1]	binding result [2]	also measured
B1	binds		
B2		binds	
B3			binding result [3]: binds
B4	binds		
B5	binds		
B6		binds	
